Holding throughout (assay): Primary Screen for Target Class Profiling of Small Molecule Inhibitors of Methyltransferases
Test [1] concerns the target Glycine N-methyltransferase (Homo sapiens) (UniProt Q14749). The settings on record: purified enzyme, MTase-Glo SAH luminescence; measured here: GNMT inhibition; at 40 µM; stronger effect = lower value. The method in brief:
(§1)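 Each enzyme was reacted with SAM and its substrate, with compounds tested once at 40 uM; SAH formed was read by MTase-Glo luminescence.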

The target in test [2] is Guanidinoacetate N-methyltransferase (Homo sapiens) (UniProt Q14353). The conditions noted are these: purified enzyme, MTase-Glo SAH luminescence; measured here: GAMT inhibition; at 40 µM; stronger effect = lower value. The gist of the method: as §1
Test [3] concerns the target Histamine N-methyltransferase (Homo sapiens) (UniProt P50135). The settings on record: purified enzyme, MTase-Glo SAH luminescence; measured here: HNMT inhibition; at 40 µM; stronger effect = lower value. The method in brief:
as §1

Test [4] has as its target Nicotinamide N-methyltransferase (Homo sapiens) (UniProt P40261). The settings on record: purified enzyme, MTase-Glo SAH luminescence; measured here: NNMT inhibition; at 40 µM; stronger effect = lower value. The method in brief:
as §1

In test [5] the target is Phenylethanolamine N-methyltransferase (Homo sapiens) (UniProt P11086). The conditions noted are these: purified enzyme, MTase-Glo SAH luminescence; measured here: PNMT inhibition; at 40 µM; stronger effect = lower value. The method in brief:
as §1

Some of the results follow. Shown are side measurements of this screen, not its main read-out; they come without a call.
% is set by controls: 0 for no effect and ±100 for the full control effect.

Turning to `CCn1c(CO)nnc1C1CC(NC(=O)c2oc3cc(OC)ccc3c2C)C1` (stereo not drawn), the activity change, negative = inhibition in test [1] is -10.3%; in test [2], -8.47%; in test [3] it was -4.12%; in test [4], -17.8%; in test [5], -14.7%.
Consider `CCCn1c(=O)c2ccc(C(=O)NC3CCCC3)cc2n2c(=O)n(CC(N)=O)nc12`, for which the activity change, negative = inhibition is -2.5% in test [1]; 0% in test [2]; 3.25% in test [3]; 0.073% in test [4]; 2.35% in test [5].
For `CCCCN1CCCC[C@H]1C(=O)Nc1c(C)cccc1C`, in that order: -0.817%, 2.48%, 7.76%, -11.5% and 4.22%.
Turning to `COC(=O)c1cccc2c1NC(c1ccc(Br)cc1)C1CC=CC21` (stereo not drawn), the activity change, negative = inhibition was -12.3% in test [1]; 4.01% in test [2]; -10.9% in test [3]; -12.8% in test [4]; -9.66% in test [5].
For `CC(C)OCCCn1c(=O)c2ccccc2n2c(CCC(=O)NC3CCCCC3)nnc12`, the activity change, negative = inhibition in test [1] was -5.93%; in test [2], 4.45%; in test [3], 4.08%; in test [4] it was 4.29%; in test [5], 1.17%.
The matching figures for `COc1cccc(CC(=O)N2CCCCCCN(C)C(=O)[C@H]3CCC[C@H]32)c1`: -2.24%, -3.67%, -1.22%, -9.7% and 8.13%.
For `COc1cccc(CNC(=O)Cn2ccc3cc(S(=O)(=O)N4CCCCC4)ccc32)c1OC`, in that order: 1.5%, -0.66%, -4.27%, -8.8% and -4.19%.
The matching figures for `O=C(CCc1nnc2n(Cc3ccc(Cl)cc3)c(=O)c3ccccc3n12)NCc1ccccc1`: -7.71%, 3.65%, 3.29%, 1.14% and -2.41%.
Consider `CCCc1cc2c(N3CCN(C4=NCC(C)(C)S4)CC3)ncnc2s1`, for which the activity change, negative = inhibition in test [1] was -1.83%; in test [2] it was 11%; in test [3], -33.6%; in test [4] it was -88.6%; in test [5], -1.77%.
Take `C[C@@H]1CC[C@@]2(OC1)O[C@H]1C[C@H]3[C@@H]4CC=C5C[C@@H](O)CC[C@]5(C)[C@H]4CC[C@]3(C)[C@H]1[C@@H]2C`: the activity change, negative = inhibition in test [1] is 0.822%; in test [2], -7.78%; in test [3], 3.82%; in test [4], -14.4%; in test [5], -0.787%.
As for `Cc1cccc(-c2cccc(CN3CCC(N[S+](=O)([O-])c4c(C)noc4C)CC3)c2)c1`, the activity change, negative = inhibition is -1.04% in test [1]; -0.787% in test [2]; -0.006% in test [3]; -3.47% in test [4]; 0.88% in test [5].
For `CC(C)CCNC(=O)C1(C)Cn2c(cc3ccccc32)C(=O)N1c1cccc(Cl)c1` (stereo not drawn), in that order: -3.99%, 4.74%, 0.306%, -6.09% and -4.24%.
Take `COC(=O)/C=C/C=C/C(=O)OC1C=C2COC(=O)C2(O)C2(C)CCCC(C)(C)C12` (stereo not drawn): the activity change, negative = inhibition is -3.71% in test [1]; -1.84% in test [2]; 6.32% in test [3]; -16.8% in test [4]; -6.17% in test [5].
The matching figures for `CNCc1ccc(C)c(NC(=O)c2ccc(Nc3nc(-c4ccccc4)c4ccccc4n3)cc2)c1`: -17.4%, -17.4%, -21.6%, -48.6% and -18.2%.
The matching figures for `CCc1ccc(S(=O)(=O)c2nnn3c2nc(NCCNC(C)=O)c2cc(Cl)ccc23)cc1`: -15.9%, 2.85%, 0.683%, -12.6% and -1.75%.
With `COC(=O)C1=COC(O[C@@H]2O[C@H](CO)[C@@H](O)[C@H](O)[C@H]2O)[C@H]2[C@@H]1[C@H](OC(=O)CCc1ccc(O)cc1)C[C@]2(C)O` (stereo partly drawn), the activity change, negative = inhibition is 6.48% in test [1]; 2.11% in test [2]; 10.1% in test [3]; -7.26% in test [4]; 0.718% in test [5].
The matching figures for `CCC1(CO)CCCN(CCCOc2ccc(C(N)=O)cc2)C1` (stereo not drawn): -4.49%, -8.76%, -24.9%, -15.2% and -9.68%.
For `COC(=O)CC(NC(=O)Nc1cccn2nc(C)nc12)c1ccccc1` (stereo not drawn), in that order: -7.84%, 0.493%, 1.54%, -9.36% and -4.31%.
For `CCc1cc2c(cc3n2CC(C)(C(=O)NC2CCCCC2)N(Cc2ccco2)C3=O)s1` (stereo not drawn), in that order: -18.5%, 4.91%, -5.62%, -10.9% and -7.87%.
For `Cc1ccc(CNC(=O)Cn2c(=O)oc3cc(S(=O)(=O)N4CCCCC4C)ccc32)cc1` (stereo not drawn), the activity change, negative = inhibition was 15% in test [1]; 0% in test [2]; 6.91% in test [3]; -3.54% in test [4]; 1.33% in test [5].
With `COc1ccc(S(=O)(=O)N2CCCC(CN3CCC(C)CC3)CC2)cc1` (stereo not drawn), the activity change, negative = inhibition in test [1] was 3.05%; in test [2], 2.08%; in test [3], -0.756%; in test [4], 2.22%; in test [5], 6.57%.
On to `C=CCn1c(=O)c2ccc(C(=O)NC(C)C)cc2n2c(=O)n(CC(=O)Nc3ccccc3F)nc12`, for which the activity change, negative = inhibition in test [1] is 2.91%; in test [2] it was 3.41%; in test [3] it was 3.56%; in test [4], -5.78%; in test [5], 0.026%.
For `COc1cc([C@H]2OC[C@@H]3[C@@H](c4ccc(O[C@@H]5O[C@H](CO)[C@@H](O)[C@H](O)[C@H]5O)c(OC)c4)OC[C@]23O)ccc1O`, the activity change, negative = inhibition in test [1] is 4.75%; in test [2], 4.53%; in test [3] it was 10.6%; in test [4], -5.42%; in test [5], 7.6%.
Regarding `CCCn1c(=O)c2ccc(C(=O)NC(C)C)cc2n2c(SCc3ccccc3F)nnc12`, the activity change, negative = inhibition in test [1] is -2.46%; in test [2], 1.26%; in test [3], -3.57%; in test [4], -1.95%; in test [5] it was -2.17%.
For `CC(C)C1=CC2=CCC3[C@](C)(CCC[C@@]3(C)C(=O)O)C2CC1O` (stereo partly drawn), in that order: -1.86%, -7.05%, 3.36%, -16.6% and -12.6%.
The matching figures for `COCCCN1C(=O)CSc2c(c(C)nn2-c2ccccc2)C1C(=O)NCc1ccccc1OC` (stereo not drawn): 2.21%, 1%, 7.58%, 4.86% and 7.12%.
For `Clc1ccc(C(c2ccccc2Cl)C(Cl)Cl)cc1` (stereo not drawn), in that order: -0.797%, 9.82%, 10.4%, -10.5% and -3.72%.
As to `CCCn1c(=O)c2ccc(Cl)cc2n2c(=O)n(CC(=O)N3CCN(c4ccccc4F)CC3)nc12`, the activity change, negative = inhibition was -5.73% in test [1]; 0% in test [2]; 5.42% in test [3]; -9.93% in test [4]; -4.7% in test [5].
Turning to `CN[C@@H]1[C@@H](O)[C@@H](O[C@@H]2[C@@H](O)[C@H](O[C@H]3O[C@H]([C@@H](C)NC)CC[C@H]3N)[C@@H](N)C[C@H]2N)OC[C@]1(C)O`, the activity change, negative = inhibition in test [2] was 0.288%; in test [4] it was -10.8%; in test [5], -3.61%.
